Data: the RNAGym collection of RNA variant scans (doi:10.1073/pnas.2313332121)
Variants at the floor of the assay are shown more often than the library holds them.

B1: TPR 5TU (parent)
chain: GGAUCUUCUCGAUCUAACAAAAAAGACAAAUCUGCCACAAAGCUUGAGAGCAUCUUCGGAUGCAGAGGCGGCAGCCUUCGGUGGCGCGAUAGCGCCAACGUUCUCAACUAUGACACGCAAAACGCGUGCUCCGUUGAAUGGAGUUUAUCAUG

Variants of: B1
Assay: polymerase ribozyme fitness, log enrichment relative to wild type (log ratio); higher = more active; in vitro selection for triplet polymerase activity
Summary of the method: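 The heterodimeric triplet polymerase ribozyme's subunits were each mutagenized into PCR-built libraries and transcribed. Every library was selected once, in triplicate, by annealing with a biotinylated primer, the partner subunit and triplets, incubating frozen at −7 °C, gel-excising extended constructs, capturing on streptavidin beads and running RT-PCR. Input and output libraries were Illumina-sequenced, with genotypes kept only at ≥10 input reads and ≥1 read per output. Fitness, from inverse-variance-weighted replicate averages, is the base-2 logarithm of genotype enrichment over wild-type enrichment.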

Polymerase ribozyme fitness (log ratio), ≤ -4.2:
A16U C54U G68U
C18U G25A C35U A52C G83U G84A G88C C116U
U15G C54G C85U G86A U111C
A17U A97U A107G
A16C G71A G84A A107G A137G
A16U G94A A119C C132G A138U
A17G A64C C75U G83A
A16U A39G A91C C96U A106C G141C G143U U145A G152U
A16G A24C G50U A52G U101G C103A C118U A121G G143U
A16G A39C A60C C63G
C18U C32U G84U G143A
A16U A52G C87A A97C G136U
A17C U55A C75G C87A G100C G128U
A17U A60C C76A G94C A106C A138U U146G C149U
A17U A37C C93G C96A C131G
A17C A23G G25U A28G C57U G58C G68A C93U C96G
C18G G25C A28C C54G A106C U111G
A17C A47G C75A C85G U148A U151A
A16G A23U A138G
C18U U31A G48U U55A C85A
A17U A24G C57U G58C C85U G86A
A17G C72A U134A
A17G A39U A40U A91U G92C C116G G141C U151G
C18G A23C C32A U56C G84A U111C
A16G A21U A39U A49U A66C G86U A91G A97G C131A
A16C G59A C103G A122G A137U A147C A150C
A17U A24U A40C G48U G84U U101A A142C
C18A A49C U104C G128U A137G
C18G A23G G46C U78A C87U U90G A120U A142U
A17C A89G C96A G124C C129A G143C U145A
A16C A23U A113C
A16C G68A
U15G G42C C85G C132G U146A
A16G C32A A40C C72U G124C
C18U A19G A47C G48C U61G A66G A106U A107U
A17G A40C U53A C69A C99U U144G
C18G A29U A47C A49U U78A C87A A98U U102G A138G A142G
A16U A17U C79G G83A A122G
A16C A29C C38U G58C C85U C118U A122U G141A U146C
A17G A28C U61A G86A C87U U144C
C18U A24U C51A A73C G92C A115G
A16U A23G U55G G58A G59A A64U G70C C85U A97U C114G
A16G A52U C57U G65A G88A C125U
A17U C76G
A17G C36A A49C A60G C118U U145G
A16U C27A A30U U53C C95G U134C
A16U U56C C87G
A16U G42A G88A C129A
A16C A66U C85G G88U C93U
A17G A52C C105G
A16U A20U A60G G94U U134G
A16U U56G A64C A91U A98U G100A U101G
A16G A21U C105G U127C
A17C C38U A49C G58C U61A A91U A98U C108U
A16C C85U C149G
A16C U61A G88U U102A G136A A137G
C18A C36U G67C U148A
A16U A30C A47C C54G G71A G84U C95G C105U
A16U C43A A52U G58U C75A C93G A137C G140U
C18U G59A C93U U104G G136U C149A
C18A A19U A24U U78A C118G A120U
A17C G83A G84A C114U A122U
C18G C54A U61A U109G A113U G140A
A17C G68C A73U G86C G94A C116A
A16C A19U U77A U90A G133U A142C
U15G A16C C51A C76U U90C A120G A150G
C18A G83A C85G C114G A115C A120U U135A
C18G A30U C69G C85G G143C
A16U A23C U61G U104C A107G A119C A142U
A16U A40G U45A C79U C85U A107U G141A
A16C G42C A91G C131G
A16U G48U C72G C85U U109G G117U C129A
A16G A23U A52G U55A C79A U127G
C18G G25C C32U G92C A150C
A17U U44A C54A G83C A98U G152U
A17U A21U A47C C54A A97U A106C A107U
A17G A40U A52C C87A A89G C105G C123G A150G
A17C A30U A39U U53A G83C A89U A97G
A16G A29U C36A U56A C93U A97G U102G G124C U139G
A17C G25C U44C A49C U55A G62C U78A G88U
U15G A19C G50C C95U C108A
A16C C32G C51U G74C A91U
A16U U77A
A16C A29C G42U A52U C118G
A16U C38A A40G C95G A150G
C18A A28C G34C A47U A49C U53A G68A
A16C G50U G67A A91G
A16U A22C A40G G92A C105U
A17C A28U C95U A110U A122U
A16U G50A A52C U53G U56A A73G C93U A98U A115G
A16U A47G G67U G71A C103A C116U
A17U U55A C96G A120G C131G
C18G A23U A24G C38U U61A C87G U145A
A17G A26C A29G G58A A64U G86U C129A
A16U C27G C75G C85G C103G C105U U135A A147C
A16C U56A G62A C85A U102G
A16U C18U C36U C76U G92C C93A
A16U A19U A49U U53C C93U C108A
U15G A29C C35G C75G C85U C99U C125G U134A
C18U A22G C43U U55G G94A C103U U104G A110U
A17G C69U G71U G80C U82G C93G G117A
A16U A89G C93G A97C A121U G141C
A17U G25U A28G A41C C43U U55G G74A A91G C96G A137G
A16U A23C G59A C85G
A16C C32G C87U C105A
A16G C87U C99U A107U U134A
A17U A60U G65C G112U
C18G G88A
C18U A26C A52C C69A A73G C85G G86U C99A U146A
A16U A24G A26G C27U A39U G48U G58C U61A G86U A89G
A16U A24G A28C A41C C54A A106U U144A
A17U C18G A28C C32A A40G C85U
C18A C27U G84A C129G G133A
C18G A19U C54A C69G C76G U135A G140U
A17U A20C C54U A73U G136U U144G U145G
U15G U53C A60G C87A A89C U144A U151G
A17U U55G A91U
A17C C27G A29C G71U C79U A115G G126C G136U
A17C A21C C27G G58U C95A
A17G G25A A41U C57G C75G U77G U78C G126A
C18U A26C C43U U44G G86C C99U C114U A137U
A16C C32U G48A C54A G81C C85G A97U U104G A120U
A16U A52C U53C U55A G88A U90C G133C
C18A A20C U31G G86U C131A
U15G A24C A28G C51U C85U
A17C C27U A41U G58C G94U G136C
A17U A22U G42U A49C G50C C76A G84U
U15G A24U A138G
A17U C57A A73U C93U A97U A115G G143C
U15G A66U G84A A110U
A17G U77A
C18G A24U A29U C85G G86A A106G
A17C U53A C79A C87U A113U A138C
A16U G42C C87G A89U A106U
A16C A66C C75A C79U G140U
A16G C35U A49C U55A C95G U102A A119U A137U A142G
A16G A20C A22U A64C C93U U151G
A17C C63G C69A G83U A91U G92U U104G
A16U C18G C54U U55G C75G C87U C99U A120G A122U G140U U145A
A16G A26U G83A A122U C125U G143C
A16U C32A U61A U78A G86U
A16G U33C C85G
A17U A19C C103G C108U
A17U G50C G83C C87U
C18U C43A G48U
A17C G65C G71A G94A A137C
A16G C54U G88C U145C
A17G C76G U144A
U15G A20C G50A U55A G88U G92C
C18G C35A U55G C95U
A17C G48A U55G C85U G86C C87A A89C C123A G136A U145C
A16C A19G A73U G81C A91U C96U A107G G143C
A17U G42A C79U G88C U102C U127A U134G U148A
C18G A52C C79G C93G C99U
U15G C108A
A17C A30G C36U G141C U148A
A16U C27G A30C U82C G92U C129A C131U A150C
C18U A49G U61A C69U G92A A107U
U15G U55A G86A G94U A107G C125U
C18G A30C C72A
C18U A23C A24C C36U G86U U130C U139C U146C
A16C A41C G58A U61G A73C G94C
A17U C32G C75A A120U G128A U145G
C18U A24C G48A C51U U61A C85U
A16U A19C A40C C76A G86U G88C A122U
U15G C27G U55C A73U C85G U101G G126A
A17U G86U A89G G92A
